In all, about 33,000 sequences were measured (“E-score (-0.5 to 0.5)”: median about -0.056, highest 2% from about 0.38 on). The list shows a part of the results.
target: Stb4 (UniProt P50104); test: PBM E-score (8-mer binding enrichment) (E-score (-0.5 to 0.5)); higher = stronger / more preferred TF binding; most listed sequences are background and not binding sites; details: protein concentration: 200 nM; construct: GST-DNA-binding domain
How it was run: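 Yeast transcription factors carrying a GST tag, as full-length proteins or DNA-binding domains, were produced by PURExpress in vitro transcription/translation. About 100-200 nM protein was applied to universal all-10-mer Agilent arrays, double-stranded by primer extension on fresh or once-stripped slides. Bound protein was detected with fluorescent anti-GST, and scans were normalised with masliner. The Universal PBM Analysis Suite gave each ungapped eight-base word, pooled with its reverse complement, an E-score, a modified Wilcoxon-Mann-Whitney statistic.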

Sequence | PBM E-score
AGCACGGC | 0.151
ACTTAGAA | -0.15
GAGTCCCC | -0.0682
ATCCAATC | -0.0238
TACGCTGA | 0.031
TTATGGAA | -0.154
GTCAGAGA | -0.222
ATGCAAAC | -0.0921
ATTGACGA | -0.138
CAGCCTGA | -0.171
CCCATAAA | -0.06
ACTTTTAC | 0.115
ATCCGGAG | 0.385
CGCCTGTA | 0.0386
AATAAATG | -0.0394
AAACAATG | -0.254
AGAAGTCG | -0.0869
CATGTCTA | -0.183
GTGGGCTA | -0.178
CCCACCGG | 0.208
GTGGATGA | -0.14
ACATGCAT | -0.0931

Sequence | PBM E-score
AGAAATAA | -0.0758
GCCATAGA | -0.232
AATGGTGA | -0.252
CGGGCTGA | 0.0911
AGACTTAA | -0.149
AATCTTAA | -0.149
CGGCGAAA | 0.201
TGCACACA | -0.236
CTTCGATC | 0.00255
CATGGCCG | 0.0847
CACAACGG | 0.0466
GATCCGTA | 0.351
CCTTGAGC | -0.0908
ATGGAAGG | -0.159
AAGCCGTC | 0.187
GAACCTGC | -0.113
AGATTTAC | -0.0548
ACTGTCAT | -0.148
AAGAACAA | 0.0482
AAACAGGC | -0.0186
GGAGAGAA | 0.0164
ATGGTACC | 0.106

Sequence | PBM E-score
ACCGCTCC | 0.0434
AACAGTCA | -0.213
ACAGTCAT | -0.108
CGGTAACC | 0.231
AGTGGCAC | -0.149
GTTCAAAC | 0.0996
ATGAAGAG | -0.144
CTTCGAAA | -0.2
AAGTGAGG | -0.184
ATGACTCA | -0.093
CAAGAATA | 0.121
ATCTACGC | 0.0191
TAAAAGAA | -0.262
TGGTAGAA | -0.174
CAGGCGGG | 0.0295
CCCTACCG | 0.137
CATACTGC | -0.144
AGGAGTCG | -0.142
GCGACTGA | -0.265
GTGTTAGA | -0.00711
AAATCTAG | -0.102
ATGCCAAC | -0.209

Sequence | PBM E-score
CAACGATA | 0.0213
CAGCACAG | -0.28
AGATCCGC | 0.291
TCAGGCGA | -0.19
ATTAGTGC | 0.106
GCTGGCAA | -0.0422
AATAGGGA | -0.00618
CACAGCGG | -0.0365
GAACAATA | 0.108
CCATGCCC | 0.0964
CCTGGATC | -0.228
ATCTTCTC | 0.0752
CTGCGCAG | -0.123
CTCACGCA | -0.057
CGAACCTA | 0.167
ACTTGTTA | -0.0394
ACCCGCAA | 0.153
ATTATAAC | 0.0597
CTGGGCCA | -0.209
CCTGCCCG | 0.0763
AGAATGTG | -0.341
GTGAGATA | -0.0558

Sequence | PBM E-score
CCACGAAG | -0.337
ATCCGAGC | 0.478
CTTTACCA | -0.245
CCGTGCCG | 0.302
AGACTAAA | -0.0468
CACGCCAG | -0.0642
CGTACAAA | -0.0595
CAGAAGAG | -0.331
ACTATCTA | -0.175
ATTCCGTG | 0.363
AAATTTGT | 0.0181
GAGAAGAC | -0.161
AGGAAGAT | -0.0288
CCGTCGCG | 0.14
GGTGTTTA | 0.0577
CAGCCTCG | 0.076
GAGCAAGA | -0.0683
CCGAGAGG | 0.38
GTTCGGGA | 0.453
TGGTTTAA | -0.219
ATCTCGTG | -0.114

Reference: the supplement of paper PMC3334620
